The text below walks through data of PubChem BioAssay AID1508624 (National Center for Advancing Translational Sciences (NCATS), 2021).

Structures are written as SMILES. Out of some 48,000 compounds screened, about 120 (0.25%) were called active. About 4% were inconclusive and are not listed. Calls come from the whole dose curve; as a rule, active = well fitted activation curve with a large enough effect; inconclusive = small, poorly fitted or top-dose-only effect, or another doubt; inactive = no such curve, though single readings can be large or run the other way. The list shows a part of the results.

This assay is described as follows: Primary qHTS for Identification of Small Molecule Activators of Huntingtin-Antisense Promoter Activity. Note: nearly all actives have a fitted effect of over 55% in size. The following applies: HEK293 HTT-AS promoter firefly luciferase reporter, 24 h; series mostly up to 57.5 µM; activity change, positive = activation: at the top concentration. In a few lines:
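HEK293 luciferase promoter-reporter cells (2,500/well) plated 24 h, then compounds added at up to 57.5 uM final for 24 h at 37 °C. Firefly luminescence by Dual-Glo, normalized to vehicle (0%) and zero RLU (-100%).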
Turning to `O=C(COc1ccc(F)cc1)Nc1nnc(SCc2cc(=O)n3ccccc3n2)s1`, the “activity change, positive = activation” value is inactive: -0.817%.

As to `CCC(C=C[C@@H]1OC(=O)C=C[C@H]1C)=C[C@H](C)CC=CC(C)=C[C@@H](C)C(=O)[C@@H](C)[C@H](O)[C@@H](C)CC(C)=CC(=O)O`, the activity change, positive = activation is inactive: -35.7% [at 2.23 µM, percent change from vehicle, -100% = no light]. For the compound `COc1ccc(N2Cc3cccc(C(=O)Nc4ccc(Cl)cc4)c3C2=O)cc1`, the “activity change, positive = activation” value was inactive: -19.4%. Regarding `COc1cccc(Cn2c(SCc3ccc(C(=O)N4CCCCC4)cc3)nc3ccncc32)c1`, the “activity change, positive = activation” value is inactive: -48%. Regarding `Cc1cc(Cl)ccc1NC(=O)CN1C(=O)COc2ccc(S(=O)(=O)Nc3ccccc3)cc21`, the “activity change, positive = activation” value was inactive: -13.3%. On to `Cc1ccc(CN(Cc2ccco2)C(=O)COc2cccc(C)c2C)o1`, for which the “activity change, positive = activation” value was inactive: -29.4%.

Take `CCOC(=O)C1CCCN(C(=O)c2ccc3c(c2)sc2nc(-c4ccc(C)cc4C)cn23)C1` (stereo not drawn): the “activity change, positive = activation” value was inactive: 1.69%.

On to `Cc1ccc2c(=O)cc(C(=O)Nc3sc4c(c3C(=O)NCC3CCCO3)CCCC4)oc2c1C` (stereo not drawn), for which the “activity change, positive = activation” value was inactive: 5.4%. The figure for `Cc1ccc(Cl)cc1NC(=O)CCc1c(C)nc2c3cccnc3nn2c1C` is inactive: -19.1%; for `O=C(c1cccc(Cl)c1)N1c2ncnn2C2(CCCCC2)[C@@H]2CCCC[C@@H]21` it is inactive: -40%; for `COc1ccc(-c2ccc3c(N)c(C(=O)NCc4ccc(C)cc4)sc3n2)cc1` it is inactive: -13.5%.

For `Cc1ccc2c(c1)N(C(=O)N1CCC(C(=O)NCCc3ccccc3)CC1)CC(C)O2` (stereo not drawn), the “activity change, positive = activation” value was inactive: -22%. `CC(C)(C)OC(=O)N1CCC(c2c(C(=O)NCCN3CCOCC3)cnn2-c2ccc(F)cc2)CC1`: the “activity change, positive = activation” value is inactive: -12.7%. `O=C(Cn1nc(-c2ccccc2)c2cnc3ccc(F)cc3c21)NC1CCCC1`: the “activity change, positive = activation” value is inactive: 0.319%. In the case of `CCOC(=O)C1CCN(c2cc(C)nc3c(-c4ccccc4OC)c(C)nn23)CC1`, the “activity change, positive = activation” value was inactive: -45.7%. With `O=C(Nc1nnc(S(=O)(=O)N2CCCCCC2)s1)c1ccccc1F`, the “activity change, positive = activation” value was inactive: 23.6%.

In the case of `CCOc1cccc2sc(N3CCN(C(=O)C(C)(C)C)CC3)nc12`, the “activity change, positive = activation” value is inactive: 24.8%. Regarding `Cc1nc(N2CCOCC2)c2c(C(=O)N(C)Cc3ccccc3)c(C)oc2n1`, the “activity change, positive = activation” value is inactive: -1.91%. For the compound `Cc1ccc(-c2nnc(SCC(=O)N3CCCc4ccccc43)o2)cc1`, the “activity change, positive = activation” value was inactive: -4.41%. Take `CCCCNc1nc(Oc2ccc(=O)n(-c3ccccc3)n2)nc(N(CC)CC)n1`: the “activity change, positive = activation” value is inactive: -37%. Turning to `Cc1cc(NC(=O)CSc2nc3c([nH]c4ccccc43)c(=O)n2-c2ccccc2F)no1`, the “activity change, positive = activation” value was inactive: -27.9%. Turning to `COc1cc(NC(=O)c2ccc3c(Cl)c4c(nc3c2)CCC4)cc(OC)c1OC`, the “activity change, positive = activation” value was inactive: 4.14%.

For the compound `CC(=O)c1cccc(-n2c(=O)c3c4c(sc3n(CC(=O)Nc3ccccc3F)c2=O)CN(C(C)=O)CC4)c1`, the “activity change, positive = activation” value is inactive: 3.69%.

Turning to `CC(C)(CC(=O)OCC(=O)Nc1ccccc1F)CC1=NS(=O)(=O)c2ccccc2N1`, the “activity change, positive = activation” value is inactive: -30.7%. Turning to `O=C(COc1ccc([N+](=O)[O-])cc1)N1CCC(c2nc3ccccc3s2)CC1`, the “activity change, positive = activation” value was inactive: -77.7%. For `CCc1ccc(CNC(=O)C2CCN(c3nnc(C)c4c(C)n(-c5ccc(C)cc5)nc34)CC2)cc1`, the “activity change, positive = activation” value was inactive: -11.5%.

Turning to `CCOc1ccc(N(C(C)C(=O)NCCSc2ccc(Cl)cc2)S(C)(=O)=O)cc1` (stereo not drawn), the “activity change, positive = activation” value was inactive: -43.8%. Regarding `COc1cc([C@H]2Oc3cc([C@H]4Oc5cc(O)cc(O)c5C(=O)[C@H]4O)ccc3O[C@H]2CO)ccc1O`, the “activity change, positive = activation” value is inactive: -26.1%. As to `COc1cc(OC)cc(C(=O)Nc2ccc(-c3nc4ccccc4s3)c(C)c2)c1`, the “activity change, positive = activation” value is inactive: 24.8%.

`Cc1ccc(N2C(=O)CS(=O)(=O)C23C(=O)N(Cc2ccccc2C)c2ccccc23)cc1Cl` (stereo not drawn): the “activity change, positive = activation” value was inactive: -26.3%. Turning to `COc1ccc(NC(=O)Cn2nc(-c3ccccc3)c3cnc4ccc(C)cc4c32)cc1`, the “activity change, positive = activation” value is inactive: -7.66%. Take `COc1ccc(-n2c(=O)[nH]c3cc(C(=O)NCCc4ccc(Cl)cc4)ccc3c2=O)cc1OC`: the “activity change, positive = activation” value is inactive: -27.1%. The figure for `Cc1ccc(OCC(=O)Nc2ccc3c(c2)sc(=O)n3C)cc1` is inactive: -15.5%; for `CCOC(=O)c1c(NC(=O)COc2ccc(CC)cc2)sc2c1CCCC2` it is inactive: -12.2%; for `Cc1ccc(-c2nc(C(=O)N3CCN(c4ccccc4)CC3)c3n2CCCCC3)cc1` it is inactive: -19.8%. For `COc1ccc(NC(=O)C(NC(=O)C2CCC(C)CC2)C(C)C)cc1` (stereo not drawn), the “activity change, positive = activation” value was inactive: -2.98%. The result for `CCC(Sc1ncccc1C(=O)Oc1ccccc1Cl)C(=O)Nc1ccccc1OC` (stereo not drawn) reads inactive: -28.1%; that for `CCCNC(=O)c1ccc2c(c1)nc(C)n2-c1cccc(C)c1`, inactive: -10.3%; that for `Cc1ccc2c(=O)c(C(=O)c3ccccc3)cn(CC(=O)Nc3ccc(C)c(Cl)c3)c2n1`, inactive: -7.46%. The figure for `Cc1nn(C)c2c1c(C(F)(F)F)cc(=O)n2C(C)C(=O)NCCC(C)C` (stereo not drawn) is inactive: -8.73%; for `Cc1ccc(C(=O)c2oc3ccccc3c2NC(=O)c2cc(=O)c3cc(C)ccc3o2)cc1` it is inactive: 0.767% [at 11.5 µM, percent change from vehicle, -100% = no light]; for `COc1cccc(Cn2ccn(-c3ccc(F)cc3)c(=O)c2=O)c1` it is inactive: -3.91%. For the compound `O=C(Nc1ccc(Cl)cc1)N1CCC(CN2CCCCCC2)CC1`, the “activity change, positive = activation” value is inactive: 26.3%. Take `COc1ccc(NC(=O)Cn2cc(C(=O)c3ccncc3)c(=O)c3cc(C)ccc32)cc1Cl`: the “activity change, positive = activation” value is inactive: -14.3%. Consider `Cc1cccc(Cn2c(SCc3ccc(C(=O)NCc4ccccc4)cc3)nc3cccnc32)c1`, for which the “activity change, positive = activation” value was inactive: -29.5%. Turning to `COC(=O)c1ccc(-n2nnc(-c3nc(-c4ccccc4Cl)no3)c2C)cc1`, the “activity change, positive = activation” value is inactive: 0.65%. Consider `CCNC(=O)C1CCCN(c2ncnc3onc(C)c23)C1` (stereo not drawn), for which the “activity change, positive = activation” value was inactive: -9.98%.

Regarding `Cc1ccn2c(Nc3ccccc3C)c(-c3ccncc3)nc2c1`, the “activity change, positive = activation” value is inactive: 24.8%. Turning to `CN1CCN(c2c(F)cc3c(=O)c(C(=O)O)cn4c3c2OCN4C)CC1`, the activity change, positive = activation result is “inactive”.

With `CCN(CCN(C)C)C(=O)Cn1ncc2c([nH]c3ccc(C)cc32)c1=O`, the “activity change, positive = activation” value is inactive: -4.89%. The result for `Cc1ccc(CNC(=O)C2CCN(Cc3nc(-c4ccccc4C)oc3C)CC2)cc1` reads inactive: -6.5%; that for `CCCCn1c(CN2CCN(c3ccc(OC)cc3)CC2)nc2c1c(=O)[nH]c(=O)n2C`, inactive: -16.5%. Regarding `Cc1cccc(NC(=O)CSc2nnc(CNC(=O)c3cccc(C)c3)n2-c2ccccc2)c1`, the “activity change, positive = activation” value is inactive: -17.6%. As to `Cc1ccccc1Cn1c(-c2cccs2)nc2ccccc21`, the “activity change, positive = activation” value was inactive: -29.6%. Take `COc1ccc(-c2noc(CN(C(=O)c3ccccc3Cl)C(C)C)n2)cc1`: the “activity change, positive = activation” value was inactive: -19.1%. As to `Cc1ccc2nc(CSc3nnc(NC(=O)CC(C)C)s3)cc(=O)n2c1`, the “activity change, positive = activation” value is inactive: -0.573%.

Regarding `Cc1ccc(Cn2c(CN3CCC(C(=O)NCc4cccnc4)CC3)cc3ccccc32)cc1`, the “activity change, positive = activation” value is inactive: -16.8%. Turning to `CCOc1ccc(CNC(=O)CCC(=O)N2Cc3ccccc3Oc3ncccc32)cc1`, the “activity change, positive = activation” value was inactive: -6.81%.
